Measurements from the BET-seq Pho4 binding data (Le et al. 2018).
This is one part of the list. These are noisy estimates, calculated here from bound and input reads.

These sequences were tested against T1, Pho4 (S. cerevisiae) (UniProt P07270) (assay: relative binding free energy (BET-seq); higher = weaker binding). Settings: reference: library average.
T1 sequence: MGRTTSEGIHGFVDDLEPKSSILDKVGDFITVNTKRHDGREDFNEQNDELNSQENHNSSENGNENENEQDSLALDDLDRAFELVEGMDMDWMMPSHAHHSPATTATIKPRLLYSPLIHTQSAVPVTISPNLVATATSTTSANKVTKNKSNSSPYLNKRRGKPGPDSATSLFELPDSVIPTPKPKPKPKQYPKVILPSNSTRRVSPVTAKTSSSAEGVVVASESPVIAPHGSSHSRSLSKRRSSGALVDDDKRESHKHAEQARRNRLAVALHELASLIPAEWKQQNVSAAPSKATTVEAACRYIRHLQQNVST

Sequence	relative binding free energy [kcal/mol]
GGCAACACGTGCGTGG	0
CGAGGCACGTGATGAT	0.17
TCATGCACGTGGTGCT	-0.18
TTTGTCACGTGACCGG	0.06
GAGAGCACGTGAGGGG	0.11
AAGTTCACGTGTTATA	0.22
TCAGACACGTGAGGTT	0.22
GGTAGCACGTGTTTGT	0.03
AGGTTCACGTGACGCG	0.45
CGAGGCACGTGTGTGA	0.03
CGGCGCACGTGGGGCT	-0.27
AGAGGCACGTGGCAGG	-0.21
AGTGTCACGTGTGTAT	0.08
ATAAGCACGTGGGTCT	-0.22
CGTTTCACGTGGCTGT	0.11
AGCCGCACGTGTAGGG	-0.14
TTGGTCACGTGGATAG	0.17
CAATTCACGTGATGTA	0.42
CGCTGCACGTGGGATG	-0.06
TCTTACACGTGTCGGG	0.23
ATGGACACGTGTGGAT	0.12
TGTAGCACGTGGACTT	-0.13
TGTCACACGTGTGTGG	0.08
ATCGACACGTGGAGGG	-0.05
GTGAACACGTGGTATG	-0.07

Sequence	relative binding free energy [kcal/mol]
GAATGCACGTGTGGAG	-0.01
CGCAGCACGTGGGGGG	-0.24
TTAGGCACGTGGGTGT	-0.19
TGATTCACGTGGTGTC	0.28
CATTTCACGTGAATGT	0.41
GCTAGCACGTGGGGTT	-0.21
CGGCGCACGTGGGAGT	-0.31
GGTAGCACGTGAAGTG	0.25
GTAATCACGTGTAGGG	0.05
GTTTGCACGTGCTATA	-0.09
CGGTTCACGTGTTGTA	0.16
TATTACACGTGTTAAT	-0.01
TGGGGCACGTGACAGG	0.03
GTCGTCACGTGGGGGA	-0.17
CTGGTCACGTGACGGT	0.17
AGTCGCACGTGGAAGT	0.03
TCAGTCACGTGGGTAG	-0.05
GTGGGCACGTGTGCAG	-0.05
ATTCACACGTGCTGGG	0.04
CGGATCACGTGTTCGG	0.24
TACGGCACGTGAAGGT	0.16
TGTCGCACGTGTGGAA	0
GGCGGCACGTGGGGGA	-0.11
TTAGGCACGTGTTTGT	-0.14
CTAATCACGTGTGTGT	0.06

Sequence	relative binding free energy [kcal/mol]
GGTGGCACGTGAAGTC	0.29
GGGTACACGTGTGGCT	0.09
TTATGCACGTGGAGTA	-0.05
TGCATCACGTGGGGGT	0.04
TTAGTCACGTGGGTCT	-0.05
ATGGTCACGTGAGTCT	0.14
AGAGGCACGTGGGAAG	-0.07
AGGTGCACGTGTTGGT	0.04
GTGTTCACGTGGTACG	0.21
AAGTGCACGTGAGGGT	0.23
TTTAGCACGTGAAAGT	0.24
AGTCTCACGTGTTAAT	0.22
GGCTTCACGTGATGGT	0.32
GGCTGCACGTGTGTCT	0.03
CTAGTCACGTGTATGT	-0.03
GGAAGCACGTGTTAGA	-0.04
ATTGTCACGTGCGGAG	-0.06
GTGGGCACGTGGGGTC	-0.16
AAGATCACGTGGTCGG	0.09
GATAGCACGTGGAAGG	0.07
AAGTGCACGTGGGAGC	-0.06
ATATACACGTGTTAAG	0.05
CTGTGCACGTGATTTG	0.11
CGTGGCACGTGTGAAG	0.06
GGTGACACGTGTTTGG	0.13

Sequence	relative binding free energy [kcal/mol]
TTGGTCACGTGAATGT	0.4
GTAGTCACGTGCGTTG	-0.05
AATGGCACGTGGCATG	-0.23
AGGGCCACGTGCTTGG	-0.26
ACTGGCACGTGTTGGT	-0.02
AAGGACACGTGGTGAA	0.04
ATGGCCACGTGTTGTG	-0.14
GTTAGCACGTGGAGTA	-0.09
TGGGACACGTGTGGCA	0.13
TGCTACACGTGTTTAG	0.03
CCTGGCACGTGTTTGG	-0.12
GGAGGCACGTGGGCGT	-0.07
CTGTACACGTGATGTG	0.04
AAGTTCACGTGTTAGG	0.36
ACGTTCACGTGTCAGG	0.36
TTCGGCACGTGGGAGC	-0.09
GGGGACACGTGTATTT	0.12
TTCATCACGTGAAGTT	0.54
GCTCGCACGTGTGGGC	0.03
TTGTACACGTGTTGGC	0.16
GAGGCCACGTGCGGTG	-0.05
CTTGGCACGTGTTGCT	-0.07
CGTTGCACGTGTGGTC	-0.07
GATCGCACGTGTAGGT	0.04
AGCATCACGTGGTTGG	0.09

Sequence	relative binding free energy [kcal/mol]
TATTACACGTGATGTT	0.24
GATTACACGTGTTATT	0.06
GAAATCACGTGGTGGT	0.18
TGACGCACGTGCGGGT	-0.16
GTGGCCACGTGGAGCG	-0.1
TGTAGCACGTGATGGT	0.12
TTCGTCACGTGTGAGG	0.21
ATTTGCACGTGATTGT	0.15
GAATTCACGTGCTTGG	0.39
CATTGCACGTGTGAAT	0.26
TACGGCACGTGTGAGG	0.06
ATTGTCACGTGAGTGA	0.28
TGGGTCACGTGAACTT	0.16
TAAGTCACGTGTTTCA	0.07
CTAGGCACGTGATGTT	-0.04
TTCAGCACGTGTGGTT	-0.07
AGGGACACGTGGTACA	-0.06
ATGTGCACGTGTTGCG	-0.01
ACTTACACGTGGGTGT	-0.03
GGTTACACGTGAAGTT	0.35
AGTGCCACGTGGGTCG	-0.37
CAGATCACGTGCTGGG	0.24
GTTGCCACGTGGAGGA	0.06
GCGTGCACGTGAATTG	0.22
TGCAGCACGTGGGGTC	-0.25

Sequence	relative binding free energy [kcal/mol]
TATCGCACGTGGGTAG	-0.1
GATCTCACGTGAGTTT	0.54
CGGTTCACGTGTATGT	0.2
TTATACACGTGTGAGG	0.19
TTTGTCACGTGATCCG	0.25
TGGCTCACGTGCGGGT	0.21
GCCCGCACGTGGGTGG	-0.2
ATTCGCACGTGGCGGG	-0.02
AATTGCACGTGGAGCT	-0.03
CTGGGCACGTGGGGAA	-0.25
TGTCGCACGTGCTGTT	-0.18
GCTATCACGTGGTGAG	0.17
TGTAGCACGTGCTAGA	-0.04
GCTTACACGTGTGTGA	0.33
TTGTCCACGTGGGACG	0.04
GATTGCACGTGGGTTT	-0.01
ACGGGCACGTGATTGG	0.05
TAGATCACGTGGGAAA	0.13
AGTATCACGTGGGAGC	0.03
GAGTTCACGTGCTGGT	0.43
TTTTTCACGTGGATTC	0.25
